From PubChem BioAssay AID1963576 (National Center for Advancing Translational Sciences (NCATS), 2024)
Hit rate of the full screen: of about 46,000 compounds, about 60 (0.1%) were called active. Roughly 3% stayed inconclusive and do not appear here. The call rests on the fitted dose curve; in most records, active means well fitted inhibition curve with a large enough effect; inconclusive means small, poorly fitted or top-dose-only effect; inactive means no such curve, though single readings can be large or run the other way. Some of the results follow.

Assay: Primary qHTS assay for Inhibitors of ovarian cancer metastasis using an organotypic tumor microenvironment (TME) model. Further: nearly all actives have a fitted effect of over 65% in size.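 On activity change, negative = inhibition: plate controls were DMSO wells for no effect and tomatine positive control wells for full effect.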
Conditions: SKOV3ip1-GFP adhesion/invasion on 3D omental model, fluorescence; series mostly up to 45.8 µM; activity change, negative = inhibition: at the top concentration
How it was run: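 Adhesion/invasion was scored as fixed GFP-labeled SKOV3ip1 cell counts (488/509 nm), normalized to DMSO and tomatine controls. Cancer cells in serum-free medium, with four compound doses (0.36-46 umol/L), sat 2 hr at RT then 16 hr at 37 C on a 48 hr fibroblast/mesothelial/ECM culture.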

Activity change, negative = inhibition, inactive:
COc1ccc(-n2ccnc(NCc3ccccc3Cl)c2=O)cc1OC -1.52%
CCOC(=O)c1cc(-c2ccccc2)n(CCCC(=O)Nc2ccccc2C)c1C -9.87%
CCOc1ccccc1CNC(=O)c1cnc2sc(N(CC)CC)nn2c1=O 0.835%
COc1ccc(CNC(=O)C(CC(C)C)N2Cc3ccccc3C2=O)cc1 (configuration not stated) -3.23%
CCN(CC)CCOC(=O)c1ccc(Nc2c3c(nc4ccccc24)CCC3)cc1 -2.69%
CCc1ccc(NC(=O)CN2C(=O)c3ccccc3Sc3ccc(C(=O)N4CCCC4)cc32)cc1 2.43%
Clc1cccc(C2=NC(c3cccs3)=Nc3ccc(Br)cc3N2)c1 -1.98%
COc1ccc(CNC(=O)c2sc3nc4n(c(=O)c3c2C)CCCCC4)cc1 4.83%
Cc1nc(-c2ccc(S(=O)(=O)Nc3ccc(Cl)c(C(F)(F)F)c3)cc2)co1 -8.48%
CCN(CC)CCOC(=O)c1ccc(NC(=O)c2cc3c(s2)-c2ccccc2OC3)cc1 -24.2%
O=C(c1cc2ccc3cccnc3c2[nH]1)N1CCN(c2ccccc2)CC1 16.3%
COc1ccc(Cn2c(C(=O)O)c(CNCc3ccc(C)o3)c3ccc(C)cc32)cc1 -1.44%
COc1ccc(C(=O)Nc2ccc(-c3nnc4n3CCCCC4)cc2)cc1OC 21.6%
COC(=O)c1cccc(-n2c(CCC(=O)O)ccc2-c2cccs2)c1 11.4%
COc1cc(-c2nc3nc(C)cc(C)n3c2Nc2ccc(Cl)cc2)ccc1O 1.97%
CCc1ccccc1N1CC(c2nc3ccccc3n2CCCCOc2ccccc2)CC1=O (configuration not stated) 1.09%
O=C(N[C@@H](c1ccccc1)[C@@H]1CCCCN1)c1cccc(C(F)(F)F)c1Cl 3.57%
CCOC(=O)c1ccc2ncc3c(-c4ccccc4)nn(-c4ccc(F)c(Cl)c4)c3c2c1 46.1%
O=C(NC1CCCC1)c1ccc(CSc2nc3cccnc3n2Cc2ccc(F)cc2)cc1 9.43%
CCOc1ccc(NC(=O)CSc2ncc3c(n2)-c2ccccc2N(Cc2ccccc2C)S3(=O)=O)cc1 6.58%
CC(=O)c1ccc(N2CCN(S(=O)(=O)c3ccc4c(c3)C(C)(C)C(=O)N4)CC2)cc1 0.288%
CCCn1c2ccccc2c2cnn(CC(=O)N(CCCOC)Cc3ccco3)c(=O)c21 -3.7%
COc1ccc(CCNC(=O)CS(=O)Cc2nc(-c3ccccc3F)oc2C)cc1OC (configuration not stated) -1.7%
COc1cc(NC(=O)CSc2ncccc2C(=O)OC(C)C)cc(OC)c1 -12.5%
Cc1cc(C(=O)NCc2ccccc2Cl)c2c(C)nn(-c3ccccc3)c2n1 -6.26%
COc1ccc(CCNC(=O)c2ccc3c(c2)ncn3-c2ccc(C)cc2C)cc1OC -4.43%
CCc1ccc(S(=O)(=O)c2nnn3c2nc(NC(C)C)c2sccc23)cc1 -6.01%
Cc1c(C(=O)N2CCN(c3ccccc3)CC2)sc2nc3n(c(=O)c12)CCC3 1.23%
CC(C)CCNC(=O)CN1C(=O)CSc2ccc(S(=O)(=O)N3CCCCC3)cc21 -11.7%
CC(=O)c1cc2c(cc1N/C(=N/S(=O)(=O)c1ccc(C)cc1)c1ccc(F)cc1)OCO2 10.3%
CCOc1ccc(-c2nc(CSCC(=O)NCc3ccc(Cl)cc3)c(C)o2)cc1 -27.4%
CCC(C(=O)NCCc1ccccc1)n1nc(C)n2c(cc3sccc32)c1=O (configuration not stated) 3.32%
CCOC(=O)c1c(-c2ccc(C)cc2)csc1NC(=O)c1nc(SC(C)C)ncc1Cl -4.66%
CCc1cc2c(cc3c(=O)n(CC(=O)NC4CCC(C)CC4)ncn32)s1 (configuration not stated) 20.4%
COc1cc(OC)c(NS(=O)(=O)c2ccc3c(c2)CCCN3C(C)=O)cc1Cl -5.15%
CCOc1ccccc1NC(=O)c1c(NC(=O)c2cccc(C)c2)sc2c1CCC2 12.1%
Cc1ccc(-c2cc(C(F)(F)F)n3nc(C(=O)NCC45CC6CC(CC(C6)C4)C5)cc3n2)cc1 -8.61%
CCOc1ccc(N2CC(NC(=O)c3ccc(S(=O)(=O)N4CCCCC4)cc3)CC2=O)cc1 (configuration not stated) -7.02%
O=C(Cc1ccccc1)NCCc1csc2nc(-c3ccc(Cl)cc3)nn12 3.7%
COc1ccc(CNC(=O)c2c3c(nc4ccccc24)C(=O)N(C2CCCCC2)C3)cc1 30.3%
COC(=O)c1ccc(CSc2nc3c([nH]c4ccccc43)c(=O)n2-c2ccc(OC)cc2)o1 -7.05%
CCOC(=O)c1scc(-c2ccccc2)c1S(=O)(=O)Nc1cc(Cl)c(OC)cc1OC -2.18%
CC1CCc2c(sc(NC(=O)C3c4ccccc4Oc4ccccc43)c2C(=O)OC(C)C)C1 (configuration not stated) 2.19%
Cc1ccc(S(=O)(=O)NCc2nc(-c3cccc(C)c3)no2)cc1 -0.642%
COc1ccccc1Nc1nn2c(=O)c3ccc(C(=O)N4CCCC(C)C4)cc3nc2s1 (configuration not stated) -3.45%
Cc1ccc(-n2nc(C)c3c(C(=O)NCc4ccccc4)cc(C4CC4)nc32)cc1 -4.75%
COc1ccccc1CNS(=O)(=O)c1ccc2c(c1)NC(=O)CC(=O)N2 5.08%

outcome, inactive:
CC(C)CN(CCNC(=O)c1cc(-c2cccs2)nc2ccccc12)CC(C)C
CC(Oc1ccccc1)C(=O)Nc1nnc2n1CCS2 (configuration not stated)
CC(=O)N1CCc2nc3sc(C(=O)Nc4ccc(Cl)cc4F)c(N)c3c(C(F)(F)F)c2C1
CC(C)c1nc2ccc(C(=O)NC(C)c3ccccc3)cc2o1 (configuration not stated)
Oc1ccccc1-c1nc(/C=C/c2ccc(F)cc2)nn1-c1ccccc1
COc1ccc(-c2nc(SCCOc3ccccc3Cl)n3[nH]c(=O)cc3n2)cc1
CCN(CC)CCNC(=O)c1ccc2c(=O)n3nc(Nc4ccccc4OC)sc3nc2c1
O=S1(=O)c2ccccc2N(Cc2cccc(Cl)c2)c2ccccc21
COc1ccc(S(=O)(=O)N2CCN(Cc3nc4ccc(C)cc4o3)CC2)cc1Cl
CCCc1nc(SCc2cc(=O)c3ccc(C)c(C)c3[nH]2)n[nH]1
CCc1ccccc1NC(=O)C1CCCN(C(=O)c2cnn(-c3ccccc3)c2-n2cccc2)C1 (configuration not stated)
Cc1ccc(NC(=O)c2ccc(-n3c(C)nnc3C)cc2)cc1F
COc1cc2nc(NCc3ccc(C)cc3)n3nc(-c4ccccc4)nc3c2cc1OC
COc1cccc(CNC(=O)c2nn(-c3ccc(C)cc3)c(=O)c3c2c2ccccc2n3C)c1
COc1ccc(C2CC(=O)N(Cc3cccc(F)c3)c3ccccc3S2)cc1 (configuration not stated)
